Results taken from ChEMBL document CHEMBL4888484, “Replenishing the malaria drug discovery pipeline: Screening and hit evaluation of the MMV Hit Generation Library 1 (HGL1) against asexual blood stage Plasmodium falciparum ,using a nano luciferase reporter read-out” (2022).
Among all 150,000 compounds or so, about 540 (0.36%) showed an effect of 50% or more. This is one part of the list.

The compounds below were run on Plasmodium falciparum (assay: Primary screen in NF54 nanoGlo assay, in single point, at 2uM, 72h; a lower Z score goes with more inhibition). Settings: timepoint 72 hour.
Assay type: functional, Erythrocyte

First: O=C(CN1CN(c2ccccc2)C2(CCN(C(=O)Nc3ccc(F)cc3F)CC2)C1=O)Nc1ccc(F)cc1
Second: Cc1ccccc1NC(=O)CN1CCC2(CC1)N=C(c1cccc(Cl)c1)C(=O)N2
The “% Inhibition” value of the first is lower: -4% for the first, -3% for the second.

Compared with `CC[C@@H](CNC(=NC)NCc1ccnn1C)Oc1cccc(F)c1`, `O=C(NCc1cccc(F)c1)N1CCc2[nH]c(-c3cccnc3)nc2C1` is higher in “% Inhibition” value: -8% for the first, 1% for the second.

Going from `CCCN1CC2(CCN(c3ncncc3C(C)C)CC2)C[C@H]1C(=O)O` to `COCCN1CCC([C@H]2c3nc[nH]c3CCN2CC(C)C)CC1`, the “% Inhibition” value rises from -10% to -1%.

Going from `O=C1OC2(CCNCC2)CN1CC(=O)N(Cc1ccccc1)C1CCCC1` to `COCCS(=O)(=O)NC1CCCC1Cc1ccccc1` (stereo not given), the “% Inhibition” value falls from 7% to -9%.

First: c1cc(-c2ccc3c(c2)OCCCO3)n2ncnc2n1
Second: c1ccc(N2CCN(Cc3ccc4c(c3)CNCCO4)CC2)nc1
The “% Inhibition” value of the first is lower: 10% for the first, 11% for the second.

Compared with `CC(=O)NC[C@H]1CCCN1c1ccccc1`, `O=C(COc1cccc(-n2ccnn2)c1)NC1CC1` is lower in “% Inhibition” value: -11% for the first, -16% for the second.

Compared with `Cc1cc(CN2CCCN(S(=O)(=O)c3ccc(Cl)s3)CC2)no1`, `O=C(c1ccc(O)c(Cl)c1)N1CCC(O)(CN2CCCC2)CC1` is higher in “% Inhibition” value: -6% for the first, -5% for the second.

First: Cc1ccc(-c2ccc(=O)n(CCNC(=O)COc3ccc4c(c3)OCO4)n2)cc1
Second: O=C(c1c[nH]c(=O)c(Cl)c1)N1CCc2[nH]nc(-c3ccc4c(c3)OCO4)c2C1
The “% Inhibition” value of the first is higher: 3% for the first, -11% for the second.

Going from `CC1CC1C(=O)Nc1cc(C2CCC2)nn1C` (stereo not given) to `CC(C)c1cc(C(=O)N[C@H]2CCCN(C3CCCCC3)C2=O)no1`, the “% Inhibition” value falls from 28% to 3%.

Compared with `FC1(F)COCCN(Cc2ncc[nH]2)C1`, `CC1CC(C)CN(C(=O)CN(CCC#N)Cc2ccccn2)C1` (stereo not given) is higher in “% Inhibition” value: -6% for the first, -2% for the second.

Going from `c1coc(-c2nc(C3CN4CCCC4CO3)no2)c1` (stereo not given) to `Nc1ccccc1-c1nc(C2CCCCCC2)no1`, the “% Inhibition” value falls from -12% to -18%.

Compared with `CCC(CC(C)CO)Nc1ccc(C#N)cc1F` (stereo not given), `Cn1cc(CC(=O)NS(=O)(=O)Cc2ccc(Cl)c(F)c2)cn1` is higher in “% Inhibition” value: -15% for the first, 0% for the second.

Compared with `Oc1cc(C(F)(F)C(F)(F)C(F)(F)C(F)F)n[nH]1`, `Cc1nn(C)cc1CNc1nc2cc(C(F)(F)F)ccc2s1` is higher in “% Inhibition” value: -37% for the first, -8% for the second.

Compared with `CCc1csc(CNS(=O)(=O)c2ccc(C)s2)n1`, `Cc1conc1NS(=O)(=O)Cc1cc(Cl)ccc1F` is lower in “% Inhibition” value: 6% for the first, -9% for the second.

First: O=C(c1[nH]nc2c1CCCC2)N1CCCC1
Second: Cc1noc([C@H]2CCCN(C(=O)c3noc4c3CCCC4)C2)n1
The “% Inhibition” value of the first is lower: -8% for the first, -2% for the second.

Going from `O=C(Cc1ccccc1Br)N[C@H]1CCc2n[nH]c(=O)cc2C1` to `COc1ccccc1CC(=O)N1CC(Nc2ccncn2)C1`, the “% Inhibition” value rises from -13% to 8%.

First: CC1(C)NC(=O)N(Cc2nnsc2Cl)C1=O
Second: CCOC(=O)c1csc([C@@H]2CCCN2Cc2nc(C)no2)n1
The “% Inhibition” value of the first is lower: -15% for the first, -6% for the second.

Compared with `CC(C)(C)C(=O)NCCC(=O)N1CCN(Cc2csc(-c3ccco3)n2)CC1`, `Cc1ccc(OCC(=O)N2CCC(n3nc(C4CC4)ccc3=O)CC2)c(C(C)(C)C)c1` is lower in “% Inhibition” value: 11% for the first, -17% for the second.

Compared with `Cc1c(-c2cnn(C)c2)cc(C#N)n1C(F)F`, `Cc1cc(C)c(C#N)c(N2CCCn3cncc3C2)n1` is lower in “% Inhibition” value: -7% for the first, -8% for the second.

Compared with `CCc1ccc(CN(C)c2cc(C3CC(N)C3)nc(N(C)C)n2)nc1` (stereo not given), `Cc1nonc1CN(C)Cc1nc(-c2ccoc2)oc1C` is lower in “% Inhibition” value: 8% for the first, -7% for the second.

Going from `CCn1ncc(-c2nc3c([nH]2)c(C)nn3Cc2cccc(Cl)c2)c1C` to `CNc1nc(C)cc(NCc2cc3cc(OC)ccc3[nH]2)n1`, the “% Inhibition” value falls from 2% to -3%.

Going from `CCc1cccc(NC(=O)CN(CC)[C@@H](C)CS(=O)(=O)CC)c1` to `CC(C)(C)c1ccc(C(O)CNC(=O)CC2CCCO2)cc1` (stereo not given), the “% Inhibition” value rises from 4% to 6%.

Compared with `COc1ccc(CC(=O)Nc2n[nH]c(CCCc3c[nH]c4ccccc34)n2)cc1`, `CCOc1ccccc1N1C(=O)N2CC(c3ccccc3OC)c3c([nH]c4ccccc34)[C@@]2(C)C1=O` (stereo not given in full) is higher in “% Inhibition” value: -21% for the first, 3% for the second.

Going from `Cc1ccc(CN(C)C(=O)[C@H]2CC(=O)N(C3CC3)C2)o1` to `Cc1cccc(N2CCN(C(=O)Nc3ccc(N4CCCC4)c(F)c3)[C@@H](C)C2)n1`, the “% Inhibition” value falls from -5% to -9%.

Compared with `CN(C)C(=O)NCCNS(=O)(=O)C[C@H]1CC(C)(C)CO1`, `CCN(CC)C(=O)NC1CCN(C(=O)OC)CC1` is lower in “% Inhibition” value: -3% for the first, -6% for the second.

Compared with `Cc1c(NC(=O)c2ccccc2NS(=O)(=O)c2ccc(Cl)cc2)c(=O)n(-c2ccccc2)n1C`, `CCOc1ccc(NS(=O)(=O)c2cc(C(=O)Nc3ccc(-n4cncn4)nc3)ccc2Cl)cc1` is lower in “% Inhibition” value: 15% for the first, -36% for the second.

Compared with `Cc1ccc(S(=O)(=O)c2c(C(=O)N3CCCCC3)cnc3ccc(F)cc23)c(C)c1`, `C[C@@H](C(N)=O)N1CCOc2c(O)cc(-c3ccc(Cl)cn3)cc2C1` is higher in “% Inhibition” value: -23% for the first, -11% for the second.

`C[C@H](NC(=O)NC1(CO)CCCCCC1)c1ccc(F)cc1F` was tested, and the “% Inhibition” value was -20%.

Compared with `O=C(CN1CN(c2ccccc2)C2(CCN(C(=O)Nc3ccc(F)cc3F)CC2)C1=O)Nc1ccc(F)cc1`, `Cc1ccccc1NC(=O)CN1CCC2(CC1)N=C(c1cccc(Cl)c1)C(=O)N2` is lower in Z score: 0.65 for the first, 0.32 for the second.

First: CC[C@@H](CNC(=NC)NCc1ccnn1C)Oc1cccc(F)c1
Second: O=C(NCc1cccc(F)c1)N1CCc2[nH]c(-c3cccnc3)nc2C1
The Z score of the first is higher: 0.91 for the first, -0.12 for the second.

Compared with `CCCN1CC2(CCN(c3ncncc3C(C)C)CC2)C[C@H]1C(=O)O`, `COCCN1CCC([C@H]2c3nc[nH]c3CCN2CC(C)C)CC1` is lower in Z score: 1.12 for the first, 0.14 for the second.

Going from `O=C1OC2(CCNCC2)CN1CC(=O)N(Cc1ccccc1)C1CCCC1` to `COCCS(=O)(=O)NC1CCCC1Cc1ccccc1` (stereo not given), the Z score rises from -1.45 to 1.14.

Compared with `c1cc(-c2ccc3c(c2)OCCCO3)n2ncnc2n1`, `c1ccc(N2CCN(Cc3ccc4c(c3)CNCCO4)CC2)nc1` is lower in Z score: -1.23 for the first, -1.57 for the second.

Going from `CC(=O)NC[C@H]1CCCN1c1ccccc1` to `O=C(COc1cccc(-n2ccnn2)c1)NC1CC1`, the Z score falls from 2.13 to 1.38.

First: Cc1cc(CN2CCCN(S(=O)(=O)c3ccc(Cl)s3)CC2)no1
Second: O=C(c1ccc(O)c(Cl)c1)N1CCC(O)(CN2CCCC2)CC1
The Z score of the first is lower: 0.86 for the first, 0.92 for the second.

Going from `Cc1ccc(-c2ccc(=O)n(CCNC(=O)COc3ccc4c(c3)OCO4)n2)cc1` to `O=C(c1c[nH]c(=O)c(Cl)c1)N1CCc2[nH]nc(-c3ccc4c(c3)OCO4)c2C1`, the Z score rises from -0.43 to 1.88.

Going from `CC1CC1C(=O)Nc1cc(C2CCC2)nn1C` (stereo not given) to `CC(C)c1cc(C(=O)N[C@H]2CCCN(C3CCCCC3)C2=O)no1`, the Z score rises from -3.15 to -0.39.

First: FC1(F)COCCN(Cc2ncc[nH]2)C1
Second: CC1CC(C)CN(C(=O)CN(CCC#N)Cc2ccccn2)C1 (stereo not given)
The Z score of the first is higher: 1.28 for the first, 0.19 for the second.

Going from `c1coc(-c2nc(C3CN4CCCC4CO3)no2)c1` (stereo not given) to `Nc1ccccc1-c1nc(C2CCCCCC2)no1`, the Z score rises from 1.5 to 1.83.

Going from `CCC(CC(C)CO)Nc1ccc(C#N)cc1F` (stereo not given) to `Cn1cc(CC(=O)NS(=O)(=O)Cc2ccc(Cl)c(F)c2)cn1`, the Z score falls from 2.14 to 0.06.

Going from `Oc1cc(C(F)(F)C(F)(F)C(F)(F)C(F)F)n[nH]1` to `Cc1nn(C)cc1CNc1nc2cc(C(F)(F)F)ccc2s1`, the Z score falls from 4.32 to 0.93.

Going from `CCc1csc(CNS(=O)(=O)c2ccc(C)s2)n1` to `Cc1conc1NS(=O)(=O)Cc1cc(Cl)ccc1F`, the Z score rises from -0.86 to 0.9.

Going from `O=C(c1[nH]nc2c1CCCC2)N1CCCC1` to `Cc1noc([C@H]2CCCN(C(=O)c3noc4c3CCCC4)C2)n1`, the Z score falls from 1.35 to 0.38.

Compared with `O=C(Cc1ccccc1Br)N[C@H]1CCc2n[nH]c(=O)cc2C1`, `COc1ccccc1CC(=O)N1CC(Nc2ccncn2)C1` is lower in Z score: 2.2 for the first, -0.92 for the second.

Going from `CC1(C)NC(=O)N(Cc2nnsc2Cl)C1=O` to `CCOC(=O)c1csc([C@@H]2CCCN2Cc2nc(C)no2)n1`, the Z score falls from 1.65 to 0.69.

Compared with `CC(C)(C)C(=O)NCCC(=O)N1CCN(Cc2csc(-c3ccco3)n2)CC1`, `Cc1ccc(OCC(=O)N2CCC(n3nc(C4CC4)ccc3=O)CC2)c(C(C)(C)C)c1` is higher in Z score: -1.5 for the first, 1.97 for the second.

First: Cc1c(-c2cnn(C)c2)cc(C#N)n1C(F)F
Second: Cc1cc(C)c(C#N)c(N2CCCn3cncc3C2)n1
The Z score of the first is lower: 1.32 for the first, 1.44 for the second.

Compared with `CCc1ccc(CN(C)c2cc(C3CC(N)C3)nc(N(C)C)n2)nc1` (stereo not given), `Cc1nonc1CN(C)Cc1nc(-c2ccoc2)oc1C` is higher in Z score: -1.04 for the first, 1.41 for the second.

Compared with `CCn1ncc(-c2nc3c([nH]2)c(C)nn3Cc2cccc(Cl)c2)c1C`, `CNc1nc(C)cc(NCc2cc3cc(OC)ccc3[nH]2)n1` is higher in Z score: -0.42 for the first, 0.71 for the second.

First: CCc1cccc(NC(=O)CN(CC)[C@@H](C)CS(=O)(=O)CC)c1
Second: CC(C)(C)c1ccc(C(O)CNC(=O)CC2CCCO2)cc1 (stereo not given)
The Z score of the first is higher: -0.52 for the first, -0.64 for the second.

Compared with `COc1ccc(CC(=O)Nc2n[nH]c(CCCc3c[nH]c4ccccc34)n2)cc1`, `CCOc1ccccc1N1C(=O)N2CC(c3ccccc3OC)c3c([nH]c4ccccc34)[C@@]2(C)C1=O` (stereo not given in full) is lower in Z score: 3.11 for the first, -0.33 for the second.

First: Cc1ccc(CN(C)C(=O)[C@H]2CC(=O)N(C3CC3)C2)o1
Second: Cc1cccc(N2CCN(C(=O)Nc3ccc(N4CCCC4)c(F)c3)[C@@H](C)C2)n1
The Z score of the first is lower: 0.69 for the first, 1.08 for the second.

Going from `CN(C)C(=O)NCCNS(=O)(=O)C[C@H]1CC(C)(C)CO1` to `CCN(CC)C(=O)NC1CCN(C(=O)OC)CC1`, the Z score rises from 0.41 to 0.82.

Going from `Cc1c(NC(=O)c2ccccc2NS(=O)(=O)c2ccc(Cl)cc2)c(=O)n(-c2ccccc2)n1C` to `CCOc1ccc(NS(=O)(=O)c2cc(C(=O)Nc3ccc(-n4cncn4)nc3)ccc2Cl)cc1`, the Z score rises from -1.74 to 5.04.

First: Cc1ccc(S(=O)(=O)c2c(C(=O)N3CCCCC3)cnc3ccc(F)cc23)c(C)c1
Second: C[C@@H](C(N)=O)N1CCOc2c(O)cc(-c3ccc(Cl)cn3)cc2C1
The Z score of the first is higher: 2.23 for the first, 2.11 for the second.

Work on `C[C@H](NC(=O)NC1(CO)CCCCCC1)c1ccc(F)cc1F` yielded a Z score of 2.04.
